Test results taken from the BET-seq Pho4 binding data (Le et al. 2018).
The other results are listed elsewhere or left out. The energies were worked out here from pooled read counts, against the library average; single values are noisy.

Target: T1, Pho4 (S. cerevisiae) (UniProt P07270)
T1 sequence: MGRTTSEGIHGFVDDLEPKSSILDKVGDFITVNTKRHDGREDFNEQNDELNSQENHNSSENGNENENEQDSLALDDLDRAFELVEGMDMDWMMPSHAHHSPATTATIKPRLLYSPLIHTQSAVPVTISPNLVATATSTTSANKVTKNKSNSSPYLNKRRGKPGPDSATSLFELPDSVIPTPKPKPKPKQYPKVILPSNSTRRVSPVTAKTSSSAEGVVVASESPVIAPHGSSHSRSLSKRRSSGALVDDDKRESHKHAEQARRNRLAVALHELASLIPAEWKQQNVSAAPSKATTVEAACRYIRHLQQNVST
Test: relative binding free energy (BET-seq); higher = weaker binding
Conditions: reference: library average

| Sequence | relative binding free energy |
| --- | --- |
| TGGTACACGTGCGTGT | -0.01 kcal/mol |
| TCGTGCACGTGTGTGA | -0.04 kcal/mol |
| TAAGGCACGTGTGGTT | -0.1 kcal/mol |
| ATGTGCACGTGGGGTT | -0.19 kcal/mol |
| TTAGGCACGTGAGCGA | -0.04 kcal/mol |
| TCTGTCACGTGATGGC | 0.2 kcal/mol |
| TTAATCACGTGGCTGT | 0.14 kcal/mol |
| TCGGACACGTGTGGTA | -0.02 kcal/mol |
| TGGCGCACGTGATGGA | 0.02 kcal/mol |
| CCTTGCACGTGTTGTT | 0.06 kcal/mol |
| AAATGCACGTGGGTAT | -0.17 kcal/mol |
| TGGAGCACGTGGATTT | 0.02 kcal/mol |
| AAAGGCACGTGGAGGG | -0.1 kcal/mol |
| TGTGGCACGTGGGCAG | -0.25 kcal/mol |
| TTAAGCACGTGGGCTA | -0.15 kcal/mol |
| GGGTTCACGTGGAGCA | 0.28 kcal/mol |
| TCTTGCACGTGGTAAT | -0.1 kcal/mol |
| GCGTTCACGTGTGGGT | 0.29 kcal/mol |
| CATTTCACGTGGGCTG | 0.22 kcal/mol |
| TACGTCACGTGAGAGT | 0.24 kcal/mol |
| ACTGGCACGTGGAGGT | -0.06 kcal/mol |

| Sequence | relative binding free energy |
| --- | --- |
| GCCGTCACGTGGGCTG | 0.06 kcal/mol |
| TTCAACACGTGTGGTG | -0.02 kcal/mol |
| GTGTCCACGTGGCGGG | 0 kcal/mol |
| GTTTTCACGTGTATTC | 0.4 kcal/mol |
| TGTAGCACGTGGGGGT | -0.22 kcal/mol |
| AGTATCACGTGCTGTT | 0.08 kcal/mol |
| GGGGGCACGTGGGTTT | -0.12 kcal/mol |
| TAGGCCACGTGGGCGT | -0.31 kcal/mol |
| TGAGTCACGTGTCCTG | 0.16 kcal/mol |
| TCTGGCACGTGGGAGG | -0.17 kcal/mol |
| AATTGCACGTGGTAGA | 0.03 kcal/mol |
| TTATGCACGTGATAAG | -0.01 kcal/mol |
| GTGGACACGTGTCGTA | 0.15 kcal/mol |
| AGTGTCACGTGCACGG | 0.01 kcal/mol |
| TTTAGCACGTGTGACT | -0.1 kcal/mol |
| GGGTCCACGTGGAGGT | 0.01 kcal/mol |
| CAGTACACGTGTTTGT | 0.03 kcal/mol |
| TACTTCACGTGTATTG | 0.25 kcal/mol |
| GCAGTCACGTGGTTTA | 0.23 kcal/mol |
| GTCTGCACGTGGGAAT | 0.05 kcal/mol |
| AGGGGCACGTGGTTCC | -0.14 kcal/mol |

| Sequence | relative binding free energy |
| --- | --- |
| GGAGGCACGTGATTGA | 0.01 kcal/mol |
| GGGGTCACGTGGTCCT | 0.08 kcal/mol |
| GTCTGCACGTGCGGGT | -0.1 kcal/mol |
| GTGTTCACGTGGAATT | 0.39 kcal/mol |
| GGTTCCACGTGTATTG | -0.02 kcal/mol |
| CATGGCACGTGTTGTT | -0.13 kcal/mol |
| TTCTTCACGTGGGGGG | 0.09 kcal/mol |
| TTGGTCACGTGAAGCA | 0.22 kcal/mol |
| GAGGACACGTGATGGA | 0.23 kcal/mol |
| AAGTACACGTGTGGTG | 0.06 kcal/mol |
| TGGCTCACGTGGAGTA | 0.18 kcal/mol |
| GGTTCCACGTGTGGTA | 0.1 kcal/mol |
| GTGATCACGTGAGTCG | 0.45 kcal/mol |
| TCAGTCACGTGTTGGC | 0.11 kcal/mol |
| TTTTACACGTGATGAC | 0.27 kcal/mol |
| TGTCGCACGTGATGGT | 0.07 kcal/mol |
| CATGGCACGTGAGTAT | 0.06 kcal/mol |
| ATTTACACGTGTGAAG | 0.13 kcal/mol |
| CTTTACACGTGTTTCG | 0.11 kcal/mol |
| ACGAACACGTGGGGGT | -0.23 kcal/mol |
| ATTTCCACGTGGTTTG | 0.1 kcal/mol |
